According to the supplement of paper PMC3334620:
In all, about 33,000 sequences were measured (“E-score (-0.5 to 0.5)”: median about -0.035, highest 2% from about 0.35 on). The list shows a part of the results.

target: T1, Pdr3 (UniProt P33200); experiment: PBM E-score (8-mer binding enrichment) (E-score (-0.5 to 0.5)); higher = stronger / more preferred TF binding; most listed sequences are background and not binding sites; conditions: protein concentration: 200 nM; construct: GST-full length
T1 sequence: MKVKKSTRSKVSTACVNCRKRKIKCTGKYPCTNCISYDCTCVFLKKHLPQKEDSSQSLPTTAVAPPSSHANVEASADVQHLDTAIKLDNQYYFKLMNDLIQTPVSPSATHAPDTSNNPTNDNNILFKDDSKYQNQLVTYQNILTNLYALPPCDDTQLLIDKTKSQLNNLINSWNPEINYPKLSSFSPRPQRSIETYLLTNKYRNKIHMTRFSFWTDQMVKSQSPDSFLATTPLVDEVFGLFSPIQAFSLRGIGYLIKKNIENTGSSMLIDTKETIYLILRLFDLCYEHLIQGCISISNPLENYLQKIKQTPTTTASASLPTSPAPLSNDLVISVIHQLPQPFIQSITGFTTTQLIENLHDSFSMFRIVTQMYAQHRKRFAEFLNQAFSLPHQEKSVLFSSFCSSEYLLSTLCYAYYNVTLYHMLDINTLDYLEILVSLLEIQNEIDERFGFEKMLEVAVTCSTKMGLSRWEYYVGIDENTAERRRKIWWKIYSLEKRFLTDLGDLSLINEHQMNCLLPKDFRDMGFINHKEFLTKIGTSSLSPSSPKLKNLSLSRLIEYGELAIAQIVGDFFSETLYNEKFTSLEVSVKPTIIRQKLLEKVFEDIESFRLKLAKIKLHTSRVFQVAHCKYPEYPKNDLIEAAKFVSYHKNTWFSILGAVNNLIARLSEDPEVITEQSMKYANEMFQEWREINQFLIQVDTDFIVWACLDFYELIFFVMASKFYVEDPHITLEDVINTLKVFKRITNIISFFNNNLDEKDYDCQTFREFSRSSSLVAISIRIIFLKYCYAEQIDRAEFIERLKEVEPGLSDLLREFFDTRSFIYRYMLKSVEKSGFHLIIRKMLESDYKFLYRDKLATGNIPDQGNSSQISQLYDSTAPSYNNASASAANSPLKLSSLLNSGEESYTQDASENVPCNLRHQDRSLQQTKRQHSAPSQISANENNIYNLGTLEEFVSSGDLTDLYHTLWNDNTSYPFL
Experimental: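 Universal 'all 10-mer' protein binding microarrays (Agilent AMADID 015681) probed with GST-tagged S. cerevisiae TFs (full-length or DBD) made by in vitro transcription/translation (PURExpress), about 100-200 nM. Bound TF was detected with fluorescent anti-GST. Each ungapped 8-mer (which stands for itself and its reverse complement) is scored by the PBM enrichment score (E-score), a modified Wilcoxon-Mann-Whitney statistic from -0.5 to +0.5, computed with the Universal PBM Analysis Suite. Scale: above 0.35 generally sequence-specific binding.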

Sequence | PBM E-score
CGCAATCC | 0.218
AATTACTC | 0.0695
ACTGTCAG | 0.053
ACCGTGTG | 0.0086
GAGGTCTA | -0.153
CCCACGAG | -0.0962
ACGTGGAG | -0.132
AGACTGTC | -0.152
CCGGCTAC | 0.276
ATGCCCTA | -0.124
CCTCTTCG | -0.038
CTTGCCTC | 0.0139
GCGATGGA | 0.236
AGTATATA | 0.245
CGCCCCAC | 0.0818
AGGACTCC | -0.0588
AGCTTGCC | -0.00322
AACGAGCC | -0.132
CCACTAGA | -0.349
CATAAATA | -0.00443
CGGTGTAC | -0.0705
CTGAAAAC | -0.107
ATACTGAC | 0.066
TCGAACGA | -0.0703
GAGGTATC | 0.105

Sequence | PBM E-score
CCAAATAG | -0.176
ACTCATAA | -0.115
CTCTAAAG | -0.0767
AGCTCATG | -0.176
ACGCAACC | 0.00065
AAGGGCAC | -0.157
GCATTGCA | -0.0198
CGGAGTCC | 0.304
CGCGGCTA | 0.291
ACCACCTA | -0.0964
CACTGAAC | -0.0516
ACGCGGTC | 0.181
ATCCCTAG | -0.164
CTGACGCC | -0.203
CTGCCCCC | -0.195
AAAGGTAG | -0.203
TAAACAGA | -0.179
ATCACCTA | -0.314
CTCAAGCA | -0.312
AATCATGC | -0.0505
CATTCTGC | 0.0977
GAGGATCC | 0.235
GTCTCGTA | -0.206
ACACATGC | -0.076
CACGACGA | -0.146

Sequence | PBM E-score
ATCCGTTC | 0.322
AACGGTGA | 0.0895
AATACAAT | 0.0802
CAAAACGA | -0.167
ATGAGATC | -0.042
CAAATTAA | 0.00547
AAGTGGAG | -0.181
TCGATAGA | -0.125
TCGTTAAA | -0.121
CACATCTC | -0.0317
TCATCAAA | -0.0771
ACCCATCC | -0.0211
GAGCAATA | -0.0292
AGCACTTC | -0.127
AAGTGGGG | -0.0866
CATTAGTA | -0.0101
GAATGACC | 0.198
ACGCCTAC | -0.151
AATAGTTA | -0.147
CCTTCCGC | 0.38
CCTCCAAG | -0.263
ACCGTTAT | -0.0372
ACTCATCA | -0.0044
AATCGATA | 0.0316
AGGCACCA | -0.0957

Sequence | PBM E-score
AGAGCCCG | 0.152
ATTAACAA | 0.0511
GAACACCA | 0.101
TTCATCAA | 0.0631
TATTCTAA | 0.0298
TAGCATGA | -0.224
CGATCGAC | 0.0431
ATTCAATA | -0.03
ACAGGAAT | -0.141
GCGGCTAA | 0.029
GACCAGGA | 0.0237
TGGGTGAA | 0.192
CGAATATC | 0.053
CACCTGAG | -0.0607
AGGATAAG | 0.0327
AGGTAAGA | -0.124
CTAGCGAG | -0.184
ATCAACAT | -0.118
CCAGTCCC | 0.0882
TGCCTCCA | -0.29
CAGCGTGC | -0.0314
ATTTTCAC | 0.15
AACCAATG | -0.102
GCGTATGA | -0.194
AATTATAG | -0.0568

Sequence | PBM E-score
AAGCCAAC | -0.154
ATCAGTAC | -0.0959
ACGGGCAA | 0.0751
CAGACCCG | 0.279
CTACTATC | 0.111
CAATTCAG | -0.0302
GTCTAAAC | -0.00121
TTCGTCAA | -0.0927
AAGAACGT | 0.00511
CCCCATGC | -0.0965
AAGTAGTC | -0.112
CAAGGCCG | 0.069
TCAGAGGA | -0.12
CGCTGCAG | -0.11
AGCCACTC | -0.192
GGCATAGA | 0.138
GATGTTAC | -0.0497
CGAAAAAA | 0.0296
ATCCCAGC | -0.0941
CTTACCTC | -0.273
ACGCTGCG | -0.124
GCAGACTA | -0.292
CATGTTCG | -0.0546
GGGATGGA | 0.276
TAACGTGA | -0.26

Sequence | PBM E-score
CCGAAAGC | 0.136
CGTCCCTC | 0.00647
CCGTTTCC | 0.332
AAGTGGCT | -0.0579
CACACTGC | 0.00501
CAGTTCCA | -0.0348
AGTCCTAT | -0.165
CCTCAACA | -0.102
CGCTCAAG | -0.104
TCCCAACA | -0.0502
CGAAGCAA | -0.219
ACCCAGTC | -0.0225
AAGGTGAA | 0.0207
AGTCAAGA | -0.163
ATTTGCTA | -0.119
AAAATTTT | -0.0346
AACCGTAG | -0.193
GTAGAAAC | -0.0556
CGAACCAA | -0.025
AAAGTTCG | 0.0873
GGACTTAA | 0.00285
AAAATCAC | -0.00967
CCCGCGAG | 0.227
AAATTTTA | -0.215
GCGCCACA | -0.0755

Sequence | PBM E-score
AGACGCCC | 0.0946
CCAAAATC | 0.0917
AACGTGAT | -0.0792
CCGATTGA | 0.126
CCATGGCG | 0.195
CTTAAAGC | -0.25
CCACTGGA | -0.0718
ATCCTGAG | -0.145
ATGTGCCA | -0.147
CCTATCCC | 0.188
AATTACAG | -0.0141
AGCAGTAT | -0.0252
GGGGAGAC | -0.0673
AACGTATT | 0.00584
CAGCTAAA | -0.177
CAACATGA | -0.0168
GCCTTTCC | 0.21
GCATATCA | 0.188
GCGTTAAA | -0.0868
AAACCAAT | 0.0911
GGAAACCC | 0.292
AACTCAGA | -0.108
